Results are given in words; binding and its absence hold for the method and conditions named. For part of these data: In cells and extracts the contact can be indirect. Some binding calls cover weakened binding; strength is not graded here. Each block holds one substance with its values, some of them ahead of it.
Experiments:
[1] = molecular target: Rabconnectin3β (Rbcn3β) / WD repeat domain 7 (WDR7) (rat (endogenous in rat brain)) (UniProt Q9ERH3); assay: co-IP; immunoprecipitation with Rbcn3α or Rbcn3β antibody, control IgGs; Western blot; starting material not told for this experiment
Rbcn3β-GFP = Rbcn3β-GFP (UniProt Q9Y4E6); assay: pull-down; Rbcn3β-GFP (or GFP) immobilised on GFP nanobody beads (GFP-Trap MA); purified CAPS1-TwinStrep added in 25 mM Tris·HCl pH 7.4, 75 mM NaCl, 0.5% NP-40, 0.5 mM EDTA, 2.5% glycerol, 1 h; Western blot; both purified
[2] = molecular target: CAPS1 (calcium-dependent activator protein for secretion, CADPS) (rat (endogenous in rat brain)) (UniProt Q62717); assay: co-IP; CAPS1 antibody or control IgG immunoprecipitates of detergent-solubilized rat brain membranes; eluates analysed by Western blotting
CAPS(859–1289)-HA = CAPS(859–1289)-HA (UniProt Q62717); assay: co-IP; HA-tagged CAPS1 fragments coexpressed with Rbcn3β-GFP in HEK293FT cells; lysis in 25 mM Tris pH 7.4, 150 mM NaCl, 1% NP-40, 1 mM EDTA, 5% glycerol; anti-HA magnetic beads 1 h on ice; Western blot; control pCMV-HA
CAPS(1–640)-HA = CAPS(1–640)-HA (UniProt Q62717); assay: as above
CAPS(1–378)-HA = CAPS(1–378)-HA (UniProt Q62717); assay: as above
[3] = molecular target: CAPS(1–1289)-HA, full-length (UniProt Q62717); assay: as above

The chains behind the UniProt entries cited, without tags or fusion partners. Where a name states a change or a piece, a line headed by the entry shows the natural chain unless it says otherwise. A line that says so, or that is headed by a name, gives the form on record, which may keep a tag or linker. Residues count along the entry.
UniProt Q9ERH3: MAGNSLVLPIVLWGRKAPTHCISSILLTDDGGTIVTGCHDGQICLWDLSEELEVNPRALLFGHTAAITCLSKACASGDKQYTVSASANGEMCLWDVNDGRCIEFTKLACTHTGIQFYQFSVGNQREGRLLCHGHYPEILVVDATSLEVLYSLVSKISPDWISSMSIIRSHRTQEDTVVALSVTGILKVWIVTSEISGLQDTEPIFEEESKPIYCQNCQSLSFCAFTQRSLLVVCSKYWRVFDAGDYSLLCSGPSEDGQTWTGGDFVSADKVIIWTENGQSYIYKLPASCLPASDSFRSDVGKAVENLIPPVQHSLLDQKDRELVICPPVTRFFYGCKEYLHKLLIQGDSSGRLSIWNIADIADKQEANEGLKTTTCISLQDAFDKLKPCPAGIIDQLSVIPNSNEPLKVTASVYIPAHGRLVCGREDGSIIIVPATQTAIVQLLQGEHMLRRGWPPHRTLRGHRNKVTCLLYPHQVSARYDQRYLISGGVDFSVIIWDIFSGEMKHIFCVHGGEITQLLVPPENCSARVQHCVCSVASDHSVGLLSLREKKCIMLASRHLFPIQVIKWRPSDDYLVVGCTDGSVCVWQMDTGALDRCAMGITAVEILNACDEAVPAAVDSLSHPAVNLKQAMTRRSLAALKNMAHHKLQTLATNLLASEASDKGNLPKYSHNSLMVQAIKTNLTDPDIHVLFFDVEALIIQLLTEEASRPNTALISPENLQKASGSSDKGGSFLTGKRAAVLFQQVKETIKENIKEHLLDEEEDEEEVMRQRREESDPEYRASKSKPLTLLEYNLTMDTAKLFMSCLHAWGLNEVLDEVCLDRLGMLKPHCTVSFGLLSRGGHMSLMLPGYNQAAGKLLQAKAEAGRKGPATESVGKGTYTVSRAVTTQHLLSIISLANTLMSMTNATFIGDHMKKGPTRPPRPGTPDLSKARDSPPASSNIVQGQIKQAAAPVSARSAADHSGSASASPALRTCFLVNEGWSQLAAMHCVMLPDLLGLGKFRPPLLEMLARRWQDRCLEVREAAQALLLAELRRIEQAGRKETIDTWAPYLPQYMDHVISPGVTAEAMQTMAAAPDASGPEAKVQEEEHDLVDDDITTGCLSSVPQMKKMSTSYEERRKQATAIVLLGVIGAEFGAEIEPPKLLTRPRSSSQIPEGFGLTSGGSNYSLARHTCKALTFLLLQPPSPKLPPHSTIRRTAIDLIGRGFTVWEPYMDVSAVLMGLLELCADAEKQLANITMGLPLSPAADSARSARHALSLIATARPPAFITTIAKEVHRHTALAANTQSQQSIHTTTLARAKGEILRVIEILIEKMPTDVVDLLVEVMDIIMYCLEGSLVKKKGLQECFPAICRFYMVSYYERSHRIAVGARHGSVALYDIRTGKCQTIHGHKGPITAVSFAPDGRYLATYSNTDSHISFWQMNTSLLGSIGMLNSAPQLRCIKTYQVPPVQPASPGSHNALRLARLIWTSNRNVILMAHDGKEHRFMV
UniProt Q9Y4E6: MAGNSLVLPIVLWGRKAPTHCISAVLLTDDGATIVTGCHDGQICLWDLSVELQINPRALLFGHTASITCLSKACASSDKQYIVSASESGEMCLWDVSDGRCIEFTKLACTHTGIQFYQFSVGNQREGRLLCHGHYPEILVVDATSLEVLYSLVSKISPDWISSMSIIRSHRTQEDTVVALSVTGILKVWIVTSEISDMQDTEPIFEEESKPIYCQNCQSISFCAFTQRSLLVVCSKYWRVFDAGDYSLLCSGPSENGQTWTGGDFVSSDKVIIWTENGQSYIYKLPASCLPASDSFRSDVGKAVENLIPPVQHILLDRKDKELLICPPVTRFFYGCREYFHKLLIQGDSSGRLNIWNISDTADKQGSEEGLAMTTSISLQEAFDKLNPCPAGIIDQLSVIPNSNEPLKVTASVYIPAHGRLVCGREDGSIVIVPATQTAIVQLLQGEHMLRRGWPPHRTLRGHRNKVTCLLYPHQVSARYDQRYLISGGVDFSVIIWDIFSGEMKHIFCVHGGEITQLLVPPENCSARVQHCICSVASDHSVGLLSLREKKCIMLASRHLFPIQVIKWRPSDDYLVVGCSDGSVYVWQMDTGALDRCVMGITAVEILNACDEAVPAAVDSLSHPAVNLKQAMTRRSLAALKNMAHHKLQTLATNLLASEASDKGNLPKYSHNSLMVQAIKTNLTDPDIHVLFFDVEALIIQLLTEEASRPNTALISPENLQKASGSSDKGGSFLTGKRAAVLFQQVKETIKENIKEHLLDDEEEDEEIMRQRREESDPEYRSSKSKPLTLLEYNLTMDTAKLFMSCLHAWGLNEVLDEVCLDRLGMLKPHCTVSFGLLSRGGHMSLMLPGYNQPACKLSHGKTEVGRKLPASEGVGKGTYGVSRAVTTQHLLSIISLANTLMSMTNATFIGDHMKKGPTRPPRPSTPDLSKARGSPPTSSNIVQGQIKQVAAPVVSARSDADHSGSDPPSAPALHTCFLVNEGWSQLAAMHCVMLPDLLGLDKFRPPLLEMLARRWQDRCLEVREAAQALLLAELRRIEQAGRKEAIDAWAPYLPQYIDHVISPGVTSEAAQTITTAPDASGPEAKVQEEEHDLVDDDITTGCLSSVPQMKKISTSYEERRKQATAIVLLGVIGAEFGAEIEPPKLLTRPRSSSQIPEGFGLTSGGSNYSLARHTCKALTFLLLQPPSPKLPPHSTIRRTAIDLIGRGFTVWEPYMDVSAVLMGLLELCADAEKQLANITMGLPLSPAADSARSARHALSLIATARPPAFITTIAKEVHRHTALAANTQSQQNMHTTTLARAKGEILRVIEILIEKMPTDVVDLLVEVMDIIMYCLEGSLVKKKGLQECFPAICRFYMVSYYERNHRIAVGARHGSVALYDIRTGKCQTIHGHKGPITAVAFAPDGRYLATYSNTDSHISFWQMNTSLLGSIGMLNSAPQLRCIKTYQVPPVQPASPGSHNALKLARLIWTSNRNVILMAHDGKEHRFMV
UniProt Q62717: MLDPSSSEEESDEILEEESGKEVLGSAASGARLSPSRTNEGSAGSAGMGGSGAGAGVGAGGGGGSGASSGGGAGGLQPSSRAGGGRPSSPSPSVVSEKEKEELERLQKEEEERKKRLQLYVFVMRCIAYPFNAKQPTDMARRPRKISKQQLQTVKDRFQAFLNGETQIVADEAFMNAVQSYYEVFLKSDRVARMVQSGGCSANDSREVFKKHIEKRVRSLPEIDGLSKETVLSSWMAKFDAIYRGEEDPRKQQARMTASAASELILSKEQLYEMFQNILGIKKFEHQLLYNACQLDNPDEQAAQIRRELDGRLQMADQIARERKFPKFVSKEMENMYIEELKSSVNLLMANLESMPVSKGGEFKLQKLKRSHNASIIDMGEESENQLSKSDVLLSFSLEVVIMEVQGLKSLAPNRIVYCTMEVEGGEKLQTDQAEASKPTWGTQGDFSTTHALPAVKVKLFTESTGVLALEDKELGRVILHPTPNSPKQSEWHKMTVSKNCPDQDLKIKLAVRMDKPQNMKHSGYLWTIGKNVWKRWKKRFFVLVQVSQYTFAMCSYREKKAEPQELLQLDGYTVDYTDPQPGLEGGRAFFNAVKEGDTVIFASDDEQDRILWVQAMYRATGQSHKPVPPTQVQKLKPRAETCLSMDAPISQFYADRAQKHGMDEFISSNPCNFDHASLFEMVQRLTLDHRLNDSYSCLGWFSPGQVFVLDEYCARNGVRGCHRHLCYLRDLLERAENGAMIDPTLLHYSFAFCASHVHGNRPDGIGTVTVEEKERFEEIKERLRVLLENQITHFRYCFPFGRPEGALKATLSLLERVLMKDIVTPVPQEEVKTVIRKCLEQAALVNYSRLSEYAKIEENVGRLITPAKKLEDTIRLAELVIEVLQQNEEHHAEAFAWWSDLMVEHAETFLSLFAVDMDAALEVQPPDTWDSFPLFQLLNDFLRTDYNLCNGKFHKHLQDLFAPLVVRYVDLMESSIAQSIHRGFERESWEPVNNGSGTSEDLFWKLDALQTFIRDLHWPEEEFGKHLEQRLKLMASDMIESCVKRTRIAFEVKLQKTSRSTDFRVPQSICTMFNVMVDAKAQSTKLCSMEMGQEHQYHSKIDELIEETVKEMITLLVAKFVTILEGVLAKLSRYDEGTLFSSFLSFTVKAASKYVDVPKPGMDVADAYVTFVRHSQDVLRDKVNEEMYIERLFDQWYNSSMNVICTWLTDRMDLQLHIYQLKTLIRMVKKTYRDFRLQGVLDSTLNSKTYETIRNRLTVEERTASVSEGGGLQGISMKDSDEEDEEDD
CAPS(1–640)-HA: residues 1-640 of Q62717
CAPS(1–378)-HA: residues 1-378 of Q62717
CAPS(859–1289)-HA: residues 859-1289 of Q62717
V-ATPase V1 domain subunit A (printed V1A1) (D4A133, form named): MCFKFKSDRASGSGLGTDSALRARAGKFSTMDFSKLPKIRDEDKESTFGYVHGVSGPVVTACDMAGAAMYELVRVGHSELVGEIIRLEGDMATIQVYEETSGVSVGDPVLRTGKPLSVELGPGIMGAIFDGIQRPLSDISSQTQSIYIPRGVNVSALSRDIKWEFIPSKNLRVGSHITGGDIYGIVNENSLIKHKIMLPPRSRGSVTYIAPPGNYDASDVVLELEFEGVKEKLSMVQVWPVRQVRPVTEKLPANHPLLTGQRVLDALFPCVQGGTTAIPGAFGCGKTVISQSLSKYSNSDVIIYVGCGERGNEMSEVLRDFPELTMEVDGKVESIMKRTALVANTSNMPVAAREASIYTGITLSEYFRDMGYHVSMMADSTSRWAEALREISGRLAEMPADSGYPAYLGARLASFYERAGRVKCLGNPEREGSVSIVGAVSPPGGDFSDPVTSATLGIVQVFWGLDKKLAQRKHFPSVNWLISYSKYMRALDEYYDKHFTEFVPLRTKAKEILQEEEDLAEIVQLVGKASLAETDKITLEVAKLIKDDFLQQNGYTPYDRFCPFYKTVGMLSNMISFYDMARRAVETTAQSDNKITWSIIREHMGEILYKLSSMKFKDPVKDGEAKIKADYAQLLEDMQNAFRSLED
UniProt P25286: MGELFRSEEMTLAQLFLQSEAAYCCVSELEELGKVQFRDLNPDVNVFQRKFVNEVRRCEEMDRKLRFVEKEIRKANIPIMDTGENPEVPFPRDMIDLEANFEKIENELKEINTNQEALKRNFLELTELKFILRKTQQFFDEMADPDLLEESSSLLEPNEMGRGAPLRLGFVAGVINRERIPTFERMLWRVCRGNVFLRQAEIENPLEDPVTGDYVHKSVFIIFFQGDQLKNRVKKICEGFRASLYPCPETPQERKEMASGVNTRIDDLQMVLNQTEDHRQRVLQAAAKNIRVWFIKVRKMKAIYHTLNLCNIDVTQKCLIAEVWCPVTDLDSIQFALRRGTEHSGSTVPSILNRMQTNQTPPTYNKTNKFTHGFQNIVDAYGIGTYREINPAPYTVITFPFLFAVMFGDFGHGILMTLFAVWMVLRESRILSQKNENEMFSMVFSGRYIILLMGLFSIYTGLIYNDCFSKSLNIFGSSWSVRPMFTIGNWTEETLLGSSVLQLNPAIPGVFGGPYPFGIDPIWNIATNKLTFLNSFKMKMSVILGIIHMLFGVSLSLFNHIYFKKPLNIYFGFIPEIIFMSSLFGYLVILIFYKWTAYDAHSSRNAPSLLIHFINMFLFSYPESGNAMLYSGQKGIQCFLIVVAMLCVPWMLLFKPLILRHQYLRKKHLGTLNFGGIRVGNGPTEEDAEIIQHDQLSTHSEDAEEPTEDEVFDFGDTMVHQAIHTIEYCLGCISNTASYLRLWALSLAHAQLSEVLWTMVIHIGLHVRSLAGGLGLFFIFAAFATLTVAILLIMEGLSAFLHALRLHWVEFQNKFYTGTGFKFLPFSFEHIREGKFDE

Substance: CAPS1 (calcium-dependent activator protein for secretion, CADPS) (from UniProt Q62717 1-1289)
binding [1]: binds

Substance: Rabconnectin3β (Rbcn3β) / WD repeat domain 7 (WDR7) (from UniProt Q9ERH3 1-1488)
binding [2]: binds

Substance: V-ATPase V1 domain subunit A (printed V1A1) (from UniProt D4A133 1-647)
binding [2]: binds

Further lines, results first:

binding (Rbcn3β-GFP): binds
Substance: CAPS1-TwinStrep (from UniProt Q62717 1-1289)

binding (CAPS(859–1289)-HA): no binding
binding (CAPS(1–640)-HA): binds
binding (CAPS(1–378)-HA): binds
binding [3]: binds
Substance: Rbcn3β-GFP (from UniProt Q9Y4E6 1-1490)

binding [2]: binds
Substance: V-ATPase V0 domain subunit a1 (V0a1) (from UniProt P25286 1-838)

— paper PMC6579465
